# Measured values from the supplement of paper PMC10441789.
# Some of the results follow. Antibody binding of pooled human sera (four to six donors per pool; dilution not stated) to peptides of the Trypanosoma cruzi antigen TSSA on microarrays. Quantile-normalised fluorescence in arbitrary units, mean of duplicate arrays; higher = more binding. No active / inactive call. The uninfected pools are read here as the healthy donors of the same country. The strongest signals lie near the top of the scale (about 60,000).
# Key:
# Experiment in all cases: antibody binding signal (normalised fluorescence) (arbitrary fluorescence units); higher = stronger serum antibody binding to peptide
# [1] = system: pooled sera of chronic Chagas disease patients, Argentina
# Method: (§1)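 Microarray of 15-residue peptides over residues 30-55 of Trypanosoma cruzi TSSAII, each with 1 to 10 substitutions at naturally variable positions, probed with one serum pool per country.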
# [2] = system: pooled sera of chronic Chagas disease patients, Bolivia
# Method: as §1
# [3] = system: pooled sera of chronic Chagas disease patients, Brazil
# Method: as §1
# [4] = system: pooled sera of chronic Chagas disease patients, Colombia
# Method: as §1
# [5] = system: pooled sera of chronic Chagas disease patients, Mexico
# Method: as §1
# [6] = system: pooled sera of chronic Chagas disease patients, USA
# Method: as §1
# [7] = system: pooled sera of uninfected people, Argentina
# Method: as §1
# [8] = system: pooled sera of uninfected people, Bolivia
# Method: as §1
# [9] = system: pooled sera of uninfected people, Brazil
# Method: as §1
# [10] = system: pooled sera of uninfected people, Colombia
# Method: as §1
# [11] = system: pooled sera of uninfected people, Mexico
# Method: as §1
# [12] = system: pooled sera of uninfected people, USA
# Method: as §1
Sequence,antibody binding signal [1],antibody binding signal [2],antibody binding signal [3],antibody binding signal [4],antibody binding signal [5],antibody binding signal [6],antibody binding signal [7],antibody binding signal [8],antibody binding signal [9],antibody binding signal [10],antibody binding signal [11],antibody binding signal [12]
PSGKDKKPATGGTPS,4040,659,2450,6990,5220,4240,189,208,163,96.8,95,111
GKEKKTATGGAPSQP,2470,267,486,3150,2610,1950,241,82.6,107,86.2,120,115
TEKKPAAGGTPSPPG,1260,182,302,7620,616,1990,140,275,2180,238,242,1180
TPPSGKENKAATGET,24400,9780,3160,498,2750,4780,1720,1460,227,,211,292
TEKKPATGEAPSPPG,47000,44600,47300,415,380,40500,908,548,402,282,234,495
NKPAAGEAPSPPGAS,1060,2460,30000,402,186,13300,473,1010,362,,159,1380
KDNKPAAGGTPSPSG,212,229,168,851,200,201,243,217,340,256,136,123
DNKAAAGGTPSQPGA,271,337,2290,3330,327,1210,318,425,2120,484,1110,135
KEKKAATGGAPSQSG,466,218,326,233,1590,527,203,97.6,110,341,82.7,107
TENKPATGETPSQSG,42500,28300,34800,243,605,25600,364,576,303,141,1630,182
NKPAAGETPSPPGAS,254,668,20400,355,234,2540,501,1110,451,868,230,1520
STPPSGTDKKTAAGG,39300,8790,33700,4980,46400,7890,715,177,213,180,584,246
TDNKPAAGETPSPPG,1330,252,20300,378,178,4520,99.4,365,191,152,275,1070
SSTPPSGKEKKPATG,21300,233,481,260,39100,466,552,727,106,277,127,208
PPSGTENKPAAGETP,45300,41300,48300,319,3610,21000,5090,1110,440,373,516,761
TISTPPSGKENKPAA,20800,8590,23300,1140,6790,13200,5300,2160,369,,257,903
KEKKTAAGEAPSQPG,1830,2280,25100,291,173,4100,207,104,97.4,364,81.2,80.4
PSGKDKKAAAGEAPS,3830,894,3080,7020,5990,8600,172,386,78.7,107,85.5,85.2
KENKTAAGGTPSPPG,406,202,176,2530,201,1270,186,104,247,128,179,123
EKKAATGETPSQPGA,4510,2230,40400,359,435,11700,625,1390,249,957,391,1060
GKENKTATGGTPSPP,2260,486,7640,3890,4100,12800,472,119,122,158,196,116
GKDNKAATGGTPSQS,703,270,565,1400,1930,1330,177,237,171,149,127,93.4
TPPSGKDKKTATGEA,6380,538,1080,269,37900,700,202,259,219,,113,109
DNKTAAGGTPSPSGA,1610,255,455,5300,378,1370,243,322,1410,427,1110,191

Sequence,antibody binding signal [1],antibody binding signal [2],antibody binding signal [3],antibody binding signal [4],antibody binding signal [5],antibody binding signal [6],antibody binding signal [7],antibody binding signal [8],antibody binding signal [9],antibody binding signal [10],antibody binding signal [11],antibody binding signal [12]
TDKKPAAGEAPSQPG,7860,17600,39100,274,210,16100,81.1,299,186,90.4,110,82.1
KENKTAAGGAPSQSG,204,525,248,2270,270,301,216,107,140,,82.5,176
KEKKPATGEAPSPSG,40800,11100,41300,183,191,29300,795,228,161,,101,334
DNKPAAGEAPSQPGA,9070,29300,44900,322,193,18500,128,232,330,,308,107
KTATGEAPSQSGASS,13600,25300,19800,104,533,19000,390,202,177,,701,134
KKAATGETPSPSGAS,330,247,4660,164,230,6530,423,200,98.5,,77.2,387
GTENKPAAGGAPSPS,45200,6630,7270,1870,2090,1820,405,1750,385,,275,181
GTEKKAATGGTPSQP,974,428,776,2080,1350,1770,483,713,539,,783,181
PPSGKDKKAAAGGTP,983,317,388,2410,24400,2190,137,453,428,,86.2,98
KDKKPAAGGTPSQPG,169,168,206,1680,203,339,201,72.2,1610,,189,108
TENKTAAGETPSPSG,27400,330,526,195,307,2540,209,249,220,,311,2080
SGKDKKPAAGETPSP,921,322,2010,1410,886,1840,134,123,86,,70.7,180
TDNKTATGEAPSQPG,16000,32100,40500,248,259,21600,159,288,343,,107,116
SGKENKAAAGGTPSQ,3670,1050,20900,10600,5220,22500,4790,1070,404,,279,135
TPPSGTENKPAAGGA,48000,43400,52200,1740,5310,30800,9580,1730,1230,,570,1030
TEKKAAAGGAPSPSG,839,246,263,7780,1200,1660,246,393,351,,363,302
PPSGKDKKPAAGEAP,1450,1030,1330,884,42600,8400,386,570,133,,79.1,135
NKAATGETPSPSGAS,1450,3510,19900,293,511,10700,462,883,299,,212,1710
PSGTDNKTAAGGAPS,10500,3180,43500,5490,1600,808,320,668,2070,,433,352
KDKKAAAGETPSQPG,259,248,19200,203,165,541,107,113,102,,83.4,91.6
PSGKENKPATGGTPS,8140,1540,8590,7250,10200,8900,8940,3750,180,,303,247
NKPAAGETPSQPGAS,1330,10100,41500,342,210,3520,439,1910,543,,208,1150
TISTPPSGKDNKTAT,7150,1690,3490,2120,17000,2610,270,508,251,,120,188
